According to the supplement of paper PMC12067230:
Single values of this set are uncertain.

Experiment: amyloid nucleation score relative to library mode (yeast Sup35 reporter selection) (log enrichment difference); higher = more amyloid nucleation; sequences are the first 22 residues of the Bri2 peptide extended by up to 12 random residues
Conditions: random library (experiment): 1;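 active = nucleation score significantly above 0 at FDR 0.05; inactive = not significantly above 0 or absent from output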
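Further: [psi-pin-] Saccharomyces cerevisiae expressing SupN fusions, induced by 100 µM Cu2SO4, selected 7 d at 30 °C without adenine and uracil, scored by deep sequencing of output versus input.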

Sequence	amyloid nucleation score
EASNCFAIRHFENKFAVETLICLDWLSPPGAVRR	3.68
EASNCFAIRHFENKFAVETLICLDWTRSWRRGAA	inactive
EASNCFAIRHFENKFAVETLICLE	inactive
EASNCFAIRHFENKFAVETLICLECVVFWSMYAA	inactive
EASNCFAIRHFENKFAVETLICLEDPGGPGQVNG	inactive
EASNCFAIRHFENKFAVETLICLEGSVR	inactive
EASNCFAIRHFENKFAVETLICLEIESKLGSRWI	3.14
EASNCFAIRHFENKFAVETLICLELLCMEEGVRV	inactive
EASNCFAIRHFENKFAVETLICLELPRLPRLWRV	1.22
EASNCFAIRHFENKFAVETLICLELRKAASATED	inactive
EASNCFAIRHFENKFAVETLICLEMGPFLEFFVD	3.43
EASNCFAIRHFENKFAVETLICLEMRMRQLLERQ	3.45
EASNCFAIRHFENKFAVETLICLENANKSIVEPV	inactive
EASNCFAIRHFENKFAVETLICLEPGDMLTVPDR	inactive
EASNCFAIRHFENKFAVETLICLEPW	inactive
EASNCFAIRHFENKFAVETLICLERASMPMGVHP	-0.295

Sequence	amyloid nucleation score
EASNCFAIRHFENKFAVETLICLERVWSSRRILY	inactive
EASNCFAIRHFENKFAVETLICLESA	inactive
EASNCFAIRHFENKFAVETLICLESPNSLFLYS	3.09
EASNCFAIRHFENKFAVETLICLEVSSADFCVVR	inactive
EASNCFAIRHFENKFAVETLICLEVTRAEQCRRW	2.3
EASNCFAIRHFENKFAVETLICLEWCTRVGLRMR	inactive
EASNCFAIRHFENKFAVETLICLEWSAACRGDHA	inactive
EASNCFAIRHFENKFAVETLICLEYVT	inactive
EASNCFAIRHFENKFAVETLICLF	7.02
EASNCFAIRHFENKFAVETLICLFAFWRWRLVWL	inactive
EASNCFAIRHFENKFAVETLICLFCFHVVVSKW	inactive
EASNCFAIRHFENKFAVETLICLFCWHCPNEPGR	7.61
EASNCFAIRHFENKFAVETLICLFDIASLTHFCG	5
EASNCFAIRHFENKFAVETLICLFFRRLRVLWPR	inactive
EASNCFAIRHFENKFAVETLICLFGF	5.91
EASNCFAIRHFENKFAVETLICLFGMWQGRELVR	-0.227

Same assay, conditions: random library (experiment): 2

Sequence	amyloid nucleation score
EASNCFAIRHFENKFAVETLICLDYNC	5.3
EASNCFAIRHFENKFAVETLICLDYSAHVSSNMN	1.86
EASNCFAIRHFENKFAVETLICLECSSLRTGLVV	inactive
EASNCFAIRHFENKFAVETLICLEDFLKLKCLCM	4.84
EASNCFAIRHFENKFAVETLICLEDVFEFVYRRM	inactive
EASNCFAIRHFENKFAVETLICLEFSLVLFSIYE	inactive
EASNCFAIRHFENKFAVETLICLEGTELWLSPS	inactive
EASNCFAIRHFENKFAVETLICLEKVFLFSSCQR	inactive
EASNCFAIRHFENKFAVETLICLEMFRL	inactive
EASNCFAIRHFENKFAVETLICLEMLKGPMYAVT	1.48
EASNCFAIRHFENKFAVETLICLERAYVWETFTG	inactive
EASNCFAIRHFENKFAVETLICLESHSL	-0.223
EASNCFAIRHFENKFAVETLICLETRF	1.2
EASNCFAIRHFENKFAVETLICLETVGIMHPHDL	2.8
EASNCFAIRHFENKFAVETLICLEYHGFKHPVNG	inactive
EASNCFAIRHFENKFAVETLICLEYTCWGFMRDK	inactive
EASNCFAIRHFENKFAVETLICLFALLCIFYAAY	5.78
EASNCFAIRHFENKFAVETLICLFALLGLGSR	inactive
EASNCFAIRHFENKFAVETLICLFCFNGRCNSRM	8.27
EASNCFAIRHFENKFAVETLICLFCVTLNVWGDV	6.1
EASNCFAIRHFENKFAVETLICLFDIHFCNMRWG	6.93
EASNCFAIRHFENKFAVETLICLFFFTFTENLNE	inactive
EASNCFAIRHFENKFAVETLICLFFGIDGSHVSG	5.91
EASNCFAIRHFENKFAVETLICLFFSNFINAYSV	inactive
EASNCFAIRHFENKFAVETLICLFGVLGWICYGW	4.45
EASNCFAIRHFENKFAVETLICLFHACLW	-0.14
EASNCFAIRHFENKFAVETLICLFHDSSYRNLLR	-0.0344
EASNCFAIRHFENKFAVETLICLFIMVMDWRR	inactive

Same assay, conditions: random library (experiment): 3

Sequence	amyloid nucleation score
EASNCFAIRHFENKFAVETLICLDVSKLGRSATG	2.74
EASNCFAIRHFENKFAVETLICLDVVYL	2.51
EASNCFAIRHFENKFAVETLICLEEDYLSAHV	inactive
EASNCFAIRHFENKFAVETLICLEFKSS	inactive
EASNCFAIRHFENKFAVETLICLEFSLLSGPEWW	inactive
EASNCFAIRHFENKFAVETLICLEKDCNMVGRAY	inactive
EASNCFAIRHFENKFAVETLICLELANQLDALCR	inactive
EASNCFAIRHFENKFAVETLICLELRLGYCRQVE	2.2
EASNCFAIRHFENKFAVETLICLEMITQNHWL	3.15
EASNCFAIRHFENKFAVETLICLEMLKVGAKMSP	inactive
EASNCFAIRHFENKFAVETLICLEPPHQHMRVKR	inactive
EASNCFAIRHFENKFAVETLICLERARAVGLGKW	2.81
EASNCFAIRHFENKFAVETLICLERHVVQAGSVS	inactive
EASNCFAIRHFENKFAVETLICLERKSRLVLGWL	inactive
EASNCFAIRHFENKFAVETLICLESASHQGDYPG	1.14
EASNCFAIRHFENKFAVETLICLETSSWMKGDSQ	0.749
EASNCFAIRHFENKFAVETLICLETWYVSRRKVW	inactive
EASNCFAIRHFENKFAVETLICLEVGCNGVGEGW	5.89
EASNCFAIRHFENKFAVETLICLEVTGYEFRQVW	inactive
EASNCFAIRHFENKFAVETLICLEYFQKTDREE	inactive
EASNCFAIRHFENKFAVETLICLEYTLCYPVVML	inactive
EASNCFAIRHFENKFAVETLICLFARLRRSRHML	inactive
EASNCFAIRHFENKFAVETLICLFCSPMYTSCEV	8.88
EASNCFAIRHFENKFAVETLICLFDKRRVRAGDS	inactive
EASNCFAIRHFENKFAVETLICLFGGHVSASSGT	8.42
EASNCFAIRHFENKFAVETLICLFGWFNIHLYQR	inactive
